Results taken from PubChem BioAssay AID488969 (Vanderbilt High Throughput Screening Facility, 2010).
The full ranking holds about 110,000 compounds; the median of “z-score” is about -0.1, and the highest 2% start at about 2. Some of the results follow. Calls of active or inactive are those of the source.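 How the source made its calls: active means z-score in the third read window above 3 or below -3; inactive means the rest.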

Molecular target: Metabotropic glutamate receptor 8 (Rattus norvegicus) (UniProt P70579)
Test: rat mGluR8 modulators via GIRK flux, primary screen, cell-based, thallium flux, HTS (AID 488969)
Settings: HEK293 rat mGluR8, GIRK (G protein-gated inwardly rectifying potassium channel) thallium flux, FluoZin2; at 10 µM; stronger effect = higher value; submaximal glutamate (EC20) added with thallium

UniProt P70579, sequence (P70579 whole entry, looked up): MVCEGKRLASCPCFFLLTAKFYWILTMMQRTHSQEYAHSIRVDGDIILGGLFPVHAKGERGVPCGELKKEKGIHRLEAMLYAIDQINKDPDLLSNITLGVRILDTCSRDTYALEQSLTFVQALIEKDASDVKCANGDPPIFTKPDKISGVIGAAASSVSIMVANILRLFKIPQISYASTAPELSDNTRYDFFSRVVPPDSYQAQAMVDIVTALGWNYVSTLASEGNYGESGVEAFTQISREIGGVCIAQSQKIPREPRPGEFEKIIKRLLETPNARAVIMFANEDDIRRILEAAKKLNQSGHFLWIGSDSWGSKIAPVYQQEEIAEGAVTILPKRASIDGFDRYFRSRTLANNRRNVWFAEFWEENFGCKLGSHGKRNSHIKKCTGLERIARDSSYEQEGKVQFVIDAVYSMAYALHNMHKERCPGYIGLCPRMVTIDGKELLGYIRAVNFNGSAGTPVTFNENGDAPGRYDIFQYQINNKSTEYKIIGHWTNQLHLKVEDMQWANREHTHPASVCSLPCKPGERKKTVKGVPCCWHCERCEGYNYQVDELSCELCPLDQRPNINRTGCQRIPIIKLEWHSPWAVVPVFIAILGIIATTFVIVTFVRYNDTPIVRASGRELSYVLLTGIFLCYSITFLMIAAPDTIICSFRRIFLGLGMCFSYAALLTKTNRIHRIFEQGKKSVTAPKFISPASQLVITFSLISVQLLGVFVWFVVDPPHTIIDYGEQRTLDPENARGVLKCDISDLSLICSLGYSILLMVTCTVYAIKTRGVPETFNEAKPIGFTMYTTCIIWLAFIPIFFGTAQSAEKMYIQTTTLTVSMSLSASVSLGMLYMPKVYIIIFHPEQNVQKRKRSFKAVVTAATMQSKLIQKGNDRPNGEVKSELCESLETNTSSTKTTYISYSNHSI

SMILES | z-score
Cc1c(C)[n+](=O)c2c(n1[O-])CCC2 | active: 14.6
Cc1ccccc1N=C(NOCc1ccc(Cl)cc1Cl)c1nonc1N | -0.307
COc1ccc(N2C(=O)CC(n3cnc4ccccc43)C2=O)cc1 (stereo not given) | 1.09
CC1(C)CC(=O)N(CC(=O)NC2CCCC2)c2ccccc2S1(=O)=O | -0.29
CCCCNS(=O)(=O)C1CCS(=O)(=O)C1 (stereo not given) | -0.314
CCN1CCN(C(=O)CN(c2cc(OC)ccc2OC)S(C)(=O)=O)CC1 | -0.0515
O=S(=O)(c1cccc(S(=O)(=O)N2CCC(N3CCCCC3)CC2)c1)N1CCOCC1 | 0.0498
COc1ccc2cc(C(=O)O)ccc2c1 | 0.101
Cc1ccc(C)n1-c1ccc2c(c1)COC2=O | -0.0138
O=C(OCC(=O)N1CCN(C(=O)c2ccco2)CC1)c1sc2ccccc2c1Cl | -0.258
N#C/C(=C\c1ccc(N2CCCCC2)o1)C(=O)Nc1cccc(Br)c1 | -0.473
Fc1cccc(NC(=S)NCC(c2cccnc2)N2CCOCC2)c1 (stereo not given) | -0.0414
COC(=O)/C=c1/s/c(=C(\C#N)C(=O)NCc2ccco2)n(-c2ccccc2)c1=O | -0.539
Cc1ccc(C)c(S(=O)(=O)N2CC(=O)Nc3ccccc32)c1 | 0.126
Cc1ccccc1Cn1c(=O)n(CCC(=O)NCc2ccc3c(c2)OCO3)c(=O)c2ccccc21 | -0.0654
NS(=O)(=O)c1ccc(CCNc2nc3c(-c4cccc(F)c4)nnn3c3ccccc23)cc1 | 0.0566
CCOC(=O)C1CCCN(CC(=O)NC2=Nc3ccccc3N=C(C)C2c2ccccc2)C1 (stereo not given) | 0.427
O=S(=O)(Cc1cc(Sc2ccc(Cl)cc2)nc(-c2ccccc2)n1)c1ccccc1 | 0.0909
C/C(=N\OC(=O)NC(C)C)c1sc(-c2ccccc2)nc1C | -1.52
COc1cccc(COc2cc3ccccc3nc2C)c1 | -0.215
Cc1sc(NC(=O)c2sc3nc4c(C)cccc4cc3c2N)c(C#N)c1C | 2.37
Clc1ccc2nc(CN3CCCCCC3)cn2c1 | 0.0366

SMILES | z-score
CN1CCc2c(c3ccccc3n2Cc2ccccc2)C1 | 1.56
CCCCOC1(c2ccccc2)OC(=O)c2ccccc21 (stereo not given) | -0.271
O=C(/C=C/c1ccc(Cl)cc1Cl)N(Cc1ccc(Cl)cc1)C1CCS(=O)(=O)C1 (stereo not given) | -0.159
COc1ccc(NC(=O)C2CC(=O)n3cnnc3S2)cc1 (stereo not given) | -0.313
CCOC(=O)c1ccc(NC(=O)CCNC(=O)c2ccc([N+](=O)[O-])cc2)cc1 | -0.327
COc1ccc(C2c3sc(=O)[nH]c3SC3C(=O)N(c4ccccc4)C(=O)C32)cc1 (stereo not given) | -1.53
CCOC(=O)COc1cc(=O)n(CC)c2ccccc12 | -0.407
COCCn1nnnc1C(c1ccccc1Cl)N1CCN(c2ccccc2OC)CC1 (stereo not given) | 0.107
O=C(Cn1cnc2c(nnn2Cc2ccccc2)c1=O)c1ccc(Cl)cc1 | 0.494
CCNC(=O)CC1C(=O)N(c2ccc(C)cc2)C(=O)N1Cc1ccccn1 (stereo not given) | -0.176
COc1ccc(C(C)=O)cc1COc1ccc(-n2cnnn2)cc1 | 0.111
COc1ccc(CCC(C)NC2C3CC4CC(C3)CC2C4)cc1 (stereo not given) | 1.2
CC(C)Cn1c(N)c(C(=O)COC(=O)C2=COCCO2)c(=O)n(C)c1=O | -0.345
COc1ccc(CCN2C(=O)NC(NC(=O)C(C)(C)C)(C(F)(F)F)C2=O)cc1OC (stereo not given) | 0.191
CC(C)(C)n1ncc2c(=O)n(CC(=O)NCCc3ccccc3)cnc21 | 0.00527
Cc1ccc(NC(=O)COC(=O)Cc2ccsc2)cc1S(=O)(=O)N1CCOCC1 | -0.186
Cn1c(SCC(=O)c2ccccc2F)nnc1C1CC1 | -0.74
COc1ccc(-c2cccc(C(=O)Nc3ccccc3C)c2)cc1 | -0.124
COc1cc(Cl)c(S(=O)(=O)NCc2cccnc2)cc1Cl | -0.443
CC(C)NC(=O)c1onc(CSc2ccc(C(C)C)cc2)c1C(=O)O | -0.825
COc1ccc(NC(=O)NCCN2CCc3ccccc3C2)cc1 | 0.0313
CCCn1c(N)c(C(=O)CSc2nc(C)cs2)c(=O)[nH]c1=O | -0.279

SMILES | z-score
O=C(c1ccc(-c2ccccc2)cc1)c1ccccc1C(=O)N1CCOCC1 | -0.412
COCCNc1cc(C)nc2c(-c3ccccc3OC)c(C)nn12 | 0.529
Cc1ccc(OCCN2CCN(CC(O)Cn3c4ccccc4c4ccccc43)CC2)cc1 (stereo not given) | 0.113
CC(C)c1nc2oc3c(=O)[nH]cnc3c2c2c1CCC2 | -0.382
O=C(NCc1cccnc1)c1cc(-c2ccccc2)on1 | -0.456
CCOC(=O)Cc1nnc(NC(=O)COc2ccc(OC)cc2)s1 | 0.347
Cc1ccccc1Nc1nnc(SCC(=O)NCc2ccco2)s1 | 0.00959
Cc1cc(C)c2c(n1)nn1c(N3CCN(c4ccccc4C)CC3)cc(C)nc21 | 0.339
O=C(Nc1ccc(Cl)c(Cl)c1)c1cccc(S(=O)(=O)NCc2cccnc2)c1 | 0.107
CC(=O)NC1C(=O)Nc2c(C)cc(C)cc21 (stereo not given) | -0.157
CN1CCN(C(=O)/C(=C\c2ccccc2)c2ccccc2)CC1 | -1.59
Cc1ccc(N=C(NO)c2nonc2N)cc1 | -1.5
COc1cccc(CC(=O)Nn2c(C)nc3ccccc3c2=O)c1 | -0.115
COC(=O)CCSc1cc([N+](=O)[O-])cc2c1c(C1OCCO1)nn2-c1ccccc1 | -1.05
Cc1nn(Cc2ccc(F)cc2)c(Cl)c1/C=N/NC(=O)c1cccnc1 | 0.00317
Cc1ccc(NC(=O)c2nc(C)n(-c3ccc([N+](=O)[O-])cc3)n2)cc1 | -0.152
COCCn1c(=S)[nH]c2cc(C(=O)NCCCN3CCOCC3)ccc2c1=O | -0.168
COc1ccc(-c2nc(-c3ccc(NC(=O)c4ccncc4)cc3)no2)cc1OC | -0.932
Cc1cc(S(=O)(=O)NCC(C)C)ccc1OCC(=O)NCC1CCCO1 (stereo not given) | -0.457
CCN1CCN(C(=O)CN(c2ccc(C)cc2)S(C)(=O)=O)CC1 | -0.355
CCCCC(=O)NCCNc1nc2c(c(=O)n(C)c(=O)n2C)n1Cc1ccc(F)cc1 | 0.238
CC(C)CC(=O)NC(=S)Nc1cccc(NC(=O)c2ccccc2)c1 | -0.194

SMILES | z-score
COc1ccc(OC)c(N(CC(=O)Nc2cccnc2)S(=O)(=O)c2ccc(OC)c(OC)c2)c1 | 0.28
Cc1ccsc1C(=O)Nc1cc(C(C)(C)C)nn1-c1ccccc1 | -1.34
Cc1ccc(OCC(=O)N/N=C\c2cn(C)c3ccccc23)c([N+](=O)[O-])c1 | -0.107
CCOC(=O)N1CCC(NC(=O)C2CCCN(c3nc4ccccc4o3)C2)CC1 (stereo not given) | 0.0747
CN(C)c1cccc(C(=O)OC(C(=O)Nc2ccc([N+](=O)[O-])cc2Br)c2ccccc2)c1 (stereo not given) | -0.391
CCOC(=O)N1CCN(CC(O)COc2c(C)cccc2C)CC1 (stereo not given) | 0.957
Cc1nn(C)c(Oc2ccccc2)c1CCNS(=O)(=O)c1ccc(Cl)cc1 | -0.479
CCc1nnc(NC(=O)CCC(=O)NCCc2ccc(OC)c(OC)c2)s1 | -0.413
CN1CCOCCOCCN(C)C(=O)N2CCOCCOCCN(CCOCC2)C1=O | 1.25
CCCCCn1c(=O)c(C(=O)c2ccccc2)nc2ccccc21 | -0.844
O=C(Nc1cc(S(=O)(=O)N2CCOCC2)ccc1Cl)C(=O)c1c(-c2ccccc2)cc2ccccn12 | -0.587
COc1cccc(NC(=O)c2ncn[nH]2)c1 | -0.079
Cc1cccc(C=Nc2ccc3c4c(cccc24)CC3)c1O | 0.463
O=c1cc(N2CCCCC2)c(-c2ccccc2)nn1Cc1ccccc1Cl | 0.0687
O=C(NCC1CCCO1)C1CC(=O)N(c2ccc(F)c(Cl)c2)C1 (stereo not given) | 0.118
CCOc1ccc(S(=O)(=O)N2CCc3ccccc3C2)cc1 | 0.0269
CCc1nnc(NC(=O)c2cc3c(s2)CCCCC3)s1 | 0.127
O=C(OCc1ccccc1)c1ccc2c(c1)-c1ccccc1C2=O | 0.088
Cc1nnc(SCC(=O)Nc2ccc(N3CCOCC3)cc2)o1 | 0.17
C=CCn1cc(/C=N\NC(=O)c2cc3c(ccc4ccccc43)o2)c2ccccc21 | -0.0727
CCCn1nnnc1NC(=O)COc1ccc(CC)cc1 | 0.101
CCCCNC(=S)N(C)/N=C/c1c(F)cccc1F | -0.077

SMILES | z-score
O=C(O)CCN1C(=O)c2ccc(NC(=O)CSCc3ccccc3)cc2C1=O | -0.13
OCCOCCn1c2ccccc2c2ccccc21 | -0.0322
CC(C)c1cccc(C(C)C)c1NC(=O)c1ccc(OCC(=O)NCc2ccccc2)cc1 | -0.175
c1ccc(-c2noc(C34CC5CC(CC(C5)C3)C4)n2)nc1 | 0.61
O=C(NN=C1c2ccccc2-c2ccccc21)c1cccc(Br)c1 | active: 4.19
CCCOc1ccc(C2C(=O)N(C3CCCCC3)CC(=O)N2CCC)cc1OC (stereo not given) | -0.518
O=C(Nc1ccncc1)C1COc2ccccc2O1 (stereo not given) | 0.407
O=C(Cc1coc2ccc3ccccc3c12)N1CCc2ccccc21 | -0.198
CCOC(=O)CC(=O)Nc1ccc(C(=O)OCC)cc1 | 0.497
O=C(Cn1cccc1C(=O)c1ccccc1)NCc1cccnc1 | -1.16
Cc1ccc(S(=O)(=O)N2CCCN(S(=O)(=O)c3ccc(C)c(C)c3)CC2)cc1C | -0.0969
Cn1nccc1C(=O)NC(=S)Nc1sc2c(c1C#N)CCCCC2 | -0.67
CN(C)S(=O)(=O)c1ccc(NC(=O)Cn2c(-c3ccccc3)noc2=O)cc1 | 0.954
Cc1ccc(C(=O)N/C(=C/c2cccs2)C(=O)N2CCCCCC2)cc1 | -0.312
COc1ccc(-c2nnc3ccc(SCC(=O)Nc4nccs4)nn23)cc1OC | -0.661
CC(=O)CS(=O)(=O)c1ccc(Oc2ccc(S(=O)(=O)CC(C)=O)cc2)cc1 | 0.562
Cc1ccc(C2c3c(oc4ccccc4c3=O)C(=O)N2c2nnc(C)s2)o1 (stereo not given) | -0.281
Cc1ccc(-c2cc(C(=O)Nc3c(C#N)cnn3C)no2)cc1 | 0.0682
COc1ccc(C(=O)NCCc2nnc(SCC(=O)Nc3ccc(Br)cc3)n2C)cc1 | -0.448
CC(C)c1c(O)nc(SCCC(=O)O)[nH]c1=O | -0.201
Cc1ccccc1-n1nnc2c(=O)oc3ccccc3c21 | active: -4.68
Cc1ccc(S(=O)(=O)Nc2c3ccccc3nc(=O)n2-c2ccccc2)cc1 | 0.00219
